Test results published in paper PMC4336329 (PLoS ONE, 2015).
Among all 310,000 compounds or so, about 2,200 (0.71%) showed an effect of 50% or more. The effect is printed as a negative number. The list shows a part of the results.

molecular target: human ether-à-go-go-related gene (hERG) potassium channel (human, UniProt Q12809); assay: primary screen, population patch clamp on CHO cells stably expressing hERG
Sequence (Q12809 whole entry, looked up): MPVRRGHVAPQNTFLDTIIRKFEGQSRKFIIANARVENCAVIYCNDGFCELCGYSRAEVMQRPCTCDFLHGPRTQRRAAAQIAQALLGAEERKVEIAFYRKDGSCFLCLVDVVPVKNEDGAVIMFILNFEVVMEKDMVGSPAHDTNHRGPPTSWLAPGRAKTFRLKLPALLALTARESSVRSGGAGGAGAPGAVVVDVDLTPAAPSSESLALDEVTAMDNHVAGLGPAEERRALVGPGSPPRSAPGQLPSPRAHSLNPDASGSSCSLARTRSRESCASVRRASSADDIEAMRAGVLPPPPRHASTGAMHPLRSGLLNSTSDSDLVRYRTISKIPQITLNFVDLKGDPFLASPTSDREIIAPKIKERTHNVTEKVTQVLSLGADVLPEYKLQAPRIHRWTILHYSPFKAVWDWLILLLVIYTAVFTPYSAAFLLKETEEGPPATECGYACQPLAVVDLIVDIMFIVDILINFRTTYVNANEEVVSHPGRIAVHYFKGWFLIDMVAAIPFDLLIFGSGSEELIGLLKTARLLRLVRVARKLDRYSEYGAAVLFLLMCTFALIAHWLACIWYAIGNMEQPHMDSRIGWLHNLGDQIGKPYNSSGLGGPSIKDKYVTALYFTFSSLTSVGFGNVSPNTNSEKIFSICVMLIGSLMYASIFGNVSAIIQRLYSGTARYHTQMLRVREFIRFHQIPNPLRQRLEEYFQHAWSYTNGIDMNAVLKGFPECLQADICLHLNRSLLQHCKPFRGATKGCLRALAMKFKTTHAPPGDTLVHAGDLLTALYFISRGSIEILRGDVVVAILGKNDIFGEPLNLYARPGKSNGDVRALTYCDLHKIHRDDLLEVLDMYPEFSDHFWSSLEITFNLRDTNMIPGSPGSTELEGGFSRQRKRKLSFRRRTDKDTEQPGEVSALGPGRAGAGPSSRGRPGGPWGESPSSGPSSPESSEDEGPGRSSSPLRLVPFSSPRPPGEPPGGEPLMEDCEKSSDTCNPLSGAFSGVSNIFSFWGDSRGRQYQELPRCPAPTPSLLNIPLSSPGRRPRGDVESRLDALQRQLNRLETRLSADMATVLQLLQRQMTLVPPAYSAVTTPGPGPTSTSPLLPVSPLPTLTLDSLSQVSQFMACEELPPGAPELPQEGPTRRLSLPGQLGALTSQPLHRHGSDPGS

Row | SMILES | hERG current change (%, negative = inhibition) at 1uM [%]
1 | CCCCCNC(=O)C(C)Sc1ccc(Cl)cc1 (stereo not drawn) | 14.1
2 | C[N+](C)(C)C(Cc1ccccc1)C(=O)[O-] (stereo not drawn) | 10.7
3 | COc1cnc(-c2ccccc2)nc1Oc1cccc(C)c1C | 6.2
4 | Cc1cccc(C(=O)Oc2ccc(/C=N/NC(=O)c3ccc(O)cc3)cc2)c1 | 19.5
5 | Cc1c(C(=O)NCCCn2ccnc2)oc2ccccc12 | 18.6
6 | Cc1cccc(C)c1OCc1cc(C(=O)N(C)Cc2cc(C3CC3)n[nH]2)no1 | 2.19
7 | COC(=O)c1c(-c2ccccc2OC)sc2ccccc12 | 12.9
8 | Cc1cc(C)c(S(=O)(=O)N2CCC(C(=O)OCc3c(C)noc3C)CC2)c(C)c1 | -5.34
9 | CCCCSc1nc(N)c(C#N)c(-c2cccs2)c1C#N | -2.59
10 | Cc1cccc(C)c1NC(=O)COC(=O)c1ccc([N+](=O)[O-])o1 | 12.3
11 | CCc1nc(SCc2ccc([N+](=O)[O-])cc2)n[nH]1 | -2.87
12 | O=C(Nc1nnc(COc2ccc(F)cc2)s1)c1ccco1 | 12.3
13 | CN(CC1CCCO1)S(=O)(=O)c1ccc(C(=O)Nc2ccc([N+](=O)[O-])cc2)cc1 (stereo not drawn) | -1.46
14 | N#CCCN(C(=O)COC(=O)Cc1ccc(Br)cc1)c1ccccc1 | 7.87
15 | CN(C)S(=O)(=O)c1ccc(C(=O)NCC(C)(C)CN=C2NS(=O)(=O)c3ccccc32)cc1 | 1.35
16 | COC(=O)c1cccc(NC(=S)Nc2ccccc2Cl)c1 | 5.66
17 | Cc1ccc(OCC(=O)N[C@@H](C)c2nnc3ccccn23)cc1C | 9.22
18 | Cc1nc(-c2ccc(Cl)cc2)sc1C1(C)CC(c2ccncc2)=NO1 (stereo not drawn) | 8.44
19 | CCn1c(SCCN2CCCCC2)nnc1-c1ccc(S(=O)(=O)N2CCOCC2)cc1.O=C(O)C(=O)O | -0.721
20 | Cc1ccc(N(CC(=O)Nc2ccc3c(c2)OCCO3)S(C)(=O)=O)cc1 | 7.74
21 | CCCNC(=O)C12CCC(C)(C(=O)C1Br)C2(C)C (stereo not drawn) | 8.44
22 | CCCc1cc(=O)oc2c(C)c(OC(C)C(=O)NCC(O)c3ccccc3)ccc12 (stereo not drawn) | -0.736
23 | Cc1nnc(NC(=O)c2ccc(F)c(S(=O)(=O)N3CCCCC3)c2)s1 | 9.22

Row | SMILES | hERG current change (%, negative = inhibition) at 1uM [%]
24 | COc1ccc(CNC(=O)Cc2c(C(=O)O)[nH]c3ccccc23)c(OC)c1 | 14
25 | CC(=O)NC(=S)NNC(=O)C(c1ccccc1)c1ccccc1 | 15
26 | CCN(CC)CCCNC(=O)CSc1nc(C)cc(C)n1 | 10.4
27 | CC(C)C[C@H](NC(=O)OC(C)(C)C)C(=O)NCC1CCC(C(=O)N[C@@H](Cc2ccccc2)C(=O)O)CC1 (stereo partly drawn) | 8.23
28 | CCOC(=O)n1c(=O)n(Cc2c(Cl)cccc2Cl)c2ccccc21 | 4.38
29 | CCC(c1nnc(SCC(=O)Nc2cccnc2Cl)n1-c1ccccc1)N(C)C (stereo not drawn) | 10.4
30 | COc1ccc(-c2nc(CS(=O)CC(=O)NC3CCCC3)c(C)o2)cc1 (stereo not drawn) | 3.33
31 | COc1cccc(-c2nc(CS(=O)(=O)CC(=O)N3CCN(C)CC3)c(C)o2)c1 | 7.44
32 | Cc1cc(OCCN2CCOCC2)nc2ccccc12.Cl | 8
33 | CCOC(=O)C1=C(c2ccccc2)Nc2ncnn2C1c1cccc(O)c1 (stereo not drawn) | 9.66
34 | COc1cc(NS(=O)(=O)c2ccc(NC(=S)NC(=O)c3ccco3)cc2)nc(OC)n1 | 4.05
35 | Cc1ccc(CN=c2c([N+](=O)[O-])nn(-c3ccc(Cl)cc3)n2O)cc1 | 11
36 | CCOC(=O)c1ccc(NC(=O)CCc2nc(-c3ccccc3Cl)no2)cc1 | 17.1
37 | COc1ccccc1S(=O)(=O)N1CCC(C(=O)O)(c2ccccc2)CC1 | 9.27
38 | CSc1ncc(CN2CCN(C3CCCC3)C(CCO)C2)cn1 (stereo not drawn) | 11.4
39 | COc1ccnc(Oc2ccccc2)c1-c1ncn[nH]1 | 14.7
40 | CN(CC(=O)NCc1ccccc1)Cc1ccc(Cl)cc1 | 2.36
41 | CC(c1nc2ccccc2n1Cc1ccccc1)N1CCCCC1 (stereo not drawn) | -26.5
42 | O=C(O)c1ccccc1NCc1cccnc1 | 14
43 | Cc1cccc(C)c1NC(=O)C1CCN(S(C)(=O)=O)CC1 | 10.6
44 | Cc1c(Cl)ccc(S(=O)(=O)N2CCN=C2c2ccccc2)c1Cl | 9.95
45 | CCc1c(-c2ccccc2)nc2sc3c(c2c1N)CCCC3 | 16
46 | Cc1ccc(NC(=O)CCC(=O)NNC(=S)Nc2ccccc2)c(C)c1 | 8.31

Row | SMILES | hERG current change (%, negative = inhibition) at 1uM [%]
47 | COC(=O)COc1ccc(/C=C2\SC(=O)N(CC(=O)Nc3ccccc3F)C2=O)cc1 | 13.9
48 | CCNS(=O)(=O)c1cc(OC)ccc1OC | 13
49 | Cc1cc(NC(=O)OC(C)C)ccc1-c1ccc(NC(=O)OC(C)C)cc1C | 14.8
50 | CCC/C=N/NC(=O)c1[nH]c2c([N+](=O)[O-])cccc2c1C | 10.3
51 | O=C(CC1SC(=O)N(Cc2ccccc2)C1=O)Nc1nccs1 (stereo not drawn) | 4.38
52 | COc1ccccc1Nc1nc(N)nc(CSC(=S)N2CC(C)CC(C)C2)n1 (stereo not drawn) | -0.821
53 | COc1cccc(NC(=O)Nc2nnc(Cc3ccc(F)cc3)s2)c1 | 14.3
54 | COc1ccc(NC(=O)CN2C(=O)COc3ccc(S(=O)(=O)N4CCOCC4)cc32)c(OC)c1 | 12.2
55 | Cc1ccc(C)c(CN2CCC(n3nccc3NC(=O)C3CCCC3)CC2)c1 | -49
56 | Clc1ccc(COc2ccccc2-c2ccnc3ncnn23)cc1 | -8.35
57 | COc1cccc(C(=O)NCC(=O)NCc2cc(=O)n(C)c(=O)n2C)c1 | 19.4
58 | Cc1nc(NC(=O)c2c(-c3ccccc3)noc2C)sc1C(=O)N(C)C | 16.3
59 | COc1ccc(NC(=O)CSc2nc3ccncc3[nH]2)c(OC)c1 | 13.1
60 | CCCC(=O)NC(c1ccc(OC)cc1)c1c(O)ccc2ccccc12 (stereo not drawn) | 15.8
61 | Cc1ccccc1CN(C)Cc1cc(=O)oc2c(C)c(C)ccc12 | 16.5
62 | Cc1nnc(C)n1/N=C/c1cc(Br)cc(Br)c1O | 15.5
63 | Cl.N#C/C=C/N1CCN(Cc2ccc3c(c2)OCO3)CC1 | 12.7
64 | Cn1c(=O)c2c(nc3n2CC(COc2ccccc2)O3)n(C)c1=O (stereo not drawn) | 13.8
65 | Cc1ccc(N2CC(C(=O)OCC(=O)Nc3ccc(F)cc3F)CC2=O)cc1 (stereo not drawn) | 4.81
66 | Cc1oc(-c2ccccc2F)nc1CN1CCC(C(=O)NCc2cccnc2)CC1 | -1.6
67 | COc1cc(-c2nc3ccccc3s2)ccc1O | -3.85
68 | CCOc1ccc(OCC)c2sc(C)nc12 | 9.93
69 | CCN1CCN(CC(O)COc2ccc(Cl)cc2)CC1.Cl (stereo not drawn) | -0.541

Row | SMILES | hERG current change (%, negative = inhibition) at 1uM [%]
70 | COC(=O)c1cn(NC(=O)c2ccc([N+](=O)[O-])cc2Cl)c(=O)c2ccccc12 | 0.834
71 | N#CCCNc1c(Cl)cc(Cl)cc1C(=O)O | 5.45
72 | Cc1nn(-c2ccccc2Cl)c(Cl)c1/C=N/Nc1cccc(C(=O)O)c1 | 6.86
73 | CC1(C)Cc2c(sc(/N=C/N3CCCCC3)c2C#N)C(C)(C)N1 | -1.78
74 | COc1ccc(CCNC2CCc3ccccc3C2)cc1 (stereo not drawn) | -12.4
75 | COc1cccc(/C=C2\C=C(c3ccc(C)cc3)OC2=O)c1OC(C)=O | 11.5
76 | C=CCn1c(C)cc(-c2csc(NC(=O)CCc3nc4ccccc4c(=O)[nH]3)n2)c1C | 10.7
77 | O=C(NCC1CCCO1)C1CCC(=O)N1CCc1ccccc1 (stereo not drawn) | 7.54
78 | Cc1c(Oc2cc(NN3CCCCC3)c([N+](=O)[O-])cc2[N+](=O)[O-])cccc1[N+](=O)[O-] | 10.3
79 | O=C(NC1=C(NC2CCS(=O)(=O)C2)C(=O)c2ccccc2C1=O)c1ccccc1 (stereo not drawn) | 9.44
80 | Cc1ccc(-n2nc3c(=S)[nH]nc(C)c3c2C)cc1 | 15.1
81 | O=C(COC(=O)c1ccc(Cl)nc1)Nc1ccccc1OC(F)F | 1.86
82 | O=C(Cn1cc(/C=N/NC(=O)c2cccc3ccccc23)c2ccccc21)Nc1ccc(F)cc1 | 1.77
83 | COC(=O)Cn1cnc2c(cnn2-c2ccc(OC)cc2)c1=O | 15.6
84 | O=[N+]([O-])c1ccc(Oc2cnc3ccccc3n2)cc1 | 9.34
85 | Cc1ccc(C(=O)NCC(=O)N2CCCCCCC2)cc1 | 20.7
86 | Cn1c(NCc2ccccc2)cc(=O)n(C)c1=O | 9.78
87 | O=C(Nc1ccc2c(c1)OCO2)C1CC(=O)N(c2ccccc2)C1 (stereo not drawn) | 18.4
88 | O=C(Nc1ccn(Cc2ccc(Cl)cc2)n1)c1ccc2c(c1)OCO2 | 18.8
89 | O=C(CCC(=O)NC1CCCCCCC1)Nc1nnc(C(F)(F)F)s1 | -6.93
90 | O=C(OCc1nnc(-c2ccc(Br)cc2)o1)c1ccco1 | -3.17
